Article PMC12209456, “Serine/threonine/tyrosine kinase 1 drives pancreatic carcinogenesis via GSK3β sequestration-mediated Wnt/β-catenin pathway hyperactivation” (Signal Transduction and Targeted Therapy, 2025)
No constants are given. Whether binding was seen depends on the method and setting. Some results given as binding are weak or reduced against the parent protein; the word gives no strength. Sequences can lack the tags named with a protein.

By UniProt entry, the sequences of proteins in these tests, tags left out.
UniProt P49841: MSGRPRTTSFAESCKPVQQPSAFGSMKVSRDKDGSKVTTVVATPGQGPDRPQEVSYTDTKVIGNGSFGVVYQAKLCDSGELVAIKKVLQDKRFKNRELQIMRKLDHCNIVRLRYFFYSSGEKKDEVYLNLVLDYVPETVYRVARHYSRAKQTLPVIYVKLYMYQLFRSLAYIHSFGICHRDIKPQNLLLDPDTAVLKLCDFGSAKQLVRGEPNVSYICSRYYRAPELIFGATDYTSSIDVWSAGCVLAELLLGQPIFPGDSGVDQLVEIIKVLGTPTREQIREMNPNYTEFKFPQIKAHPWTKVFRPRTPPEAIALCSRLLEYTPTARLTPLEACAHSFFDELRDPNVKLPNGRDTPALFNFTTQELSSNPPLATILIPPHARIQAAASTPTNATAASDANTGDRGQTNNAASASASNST
UniProt P35222: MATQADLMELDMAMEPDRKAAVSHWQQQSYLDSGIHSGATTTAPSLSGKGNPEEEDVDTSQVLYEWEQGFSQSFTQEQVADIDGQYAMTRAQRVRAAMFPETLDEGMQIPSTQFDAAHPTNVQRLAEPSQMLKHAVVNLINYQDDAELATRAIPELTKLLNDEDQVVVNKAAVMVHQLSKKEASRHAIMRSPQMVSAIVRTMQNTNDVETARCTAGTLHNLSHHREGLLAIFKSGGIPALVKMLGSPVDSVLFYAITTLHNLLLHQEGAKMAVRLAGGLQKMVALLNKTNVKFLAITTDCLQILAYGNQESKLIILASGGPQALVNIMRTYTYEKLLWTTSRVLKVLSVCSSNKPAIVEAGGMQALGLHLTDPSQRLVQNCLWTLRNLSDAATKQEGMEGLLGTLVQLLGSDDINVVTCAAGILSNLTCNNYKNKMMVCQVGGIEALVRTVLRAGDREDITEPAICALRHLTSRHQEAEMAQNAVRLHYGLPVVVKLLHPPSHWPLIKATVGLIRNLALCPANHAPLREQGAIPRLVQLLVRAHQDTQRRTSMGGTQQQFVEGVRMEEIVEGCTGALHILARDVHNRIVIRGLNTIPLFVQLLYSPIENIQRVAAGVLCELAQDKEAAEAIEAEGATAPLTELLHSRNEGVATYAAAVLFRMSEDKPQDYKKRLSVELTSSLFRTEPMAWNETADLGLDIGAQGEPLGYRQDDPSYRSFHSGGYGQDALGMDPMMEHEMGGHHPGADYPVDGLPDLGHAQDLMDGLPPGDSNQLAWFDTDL

Columns and labels:
[1] = target: His-tagged GSK3β (UniProt P49841); test: pull-down; purified GST-STYK1 ICD incubated with His-tagged β-catenin or GSK3β and Ni-sepharose beads overnight at 4 °C, Western blot; both purified
[2] = target: His-tagged β-catenin (UniProt P35222); test: as above

B1: GST-tagged STYK1 ICD (aa 26-422) (domain or fragment, UniProt Q6J9G0 26-422)
chain: VIIVPTLLVTIFLILLGVILWLFIREQRTQQQRSGPQGIAPVPPPRDLSWEAGHGGNVALPLKETSVENFLGATTPALAKLQVPREQLSEVLEQICSGSCGPIFRANMNTGDPSKPKSVILKALKEPAGLHEVQDFLGRIQFHQYLGKHKNLVQLEGCCTEKLPLYMVLEDVAQGDLLSFLWTCRRDVMTMDGLLYDLTEKQVYHIGKQVLLALEFLQEKHLFHGDVAARNILMQSDLTAKLCGLGLAYEVYTRGAISSTQTIPLKWLAPERLLLRPASIRADVWSFGILLYEMVTLGAPPYPEVPPTSILEHLQRRKIMKRPSSCTHTMYSIMKSCWRWREADRPSPRELRLRLEAAIKTADDEAVLQVPELVVPELYAAVAGIRVESLFYNYSML
With B1 the binding [1] was “binds” and the binding [2] was “binds”.
